# Data: the supplement of paper PMC12645437, “Orthogonal IMiD-Degron Pairs Induce Selective Protein Degradation in Cells” (ACS Chemical Biology, 2025)
# The list shows a part of the results.
# B1: Q9UKT9 (peptide)
# chain: FGCEICGAAFTQKGNLLRHIKL
# B2: Q9UKT9 (peptide)
# chain: FDCDVCGANFTQKGNLLRHIKL
# B3: Q9UKT9 (peptide)
# chain: FSCPVCGAIFTQKGNLLRHIKL
# B4: Q9UKT9 (peptide)
# chain: FFCPICGRQFTQKGNLLRHIKL
# B5: Q9UKT9 (peptide)
# chain: FECNQCGASFTQKGNLLRHIKL
# B6: Q9UKT9 (peptide)
# chain: FRCNQCGADFTQKGNLLRHIKL
# B7: Q9UKT9 (peptide)
# chain: FCCPICGRWFTQKGNLLRHIKL
# B8: Q9UKT9 (peptide)
# chain: LKCPICGFACTQKGNLLRHIKL
# B9: Q9UKT9 (peptide)
# chain: FNCEVCGAMFTQKGNLLRHIKL
# B10: Q9UKT9 (peptide)
# chain: FFCEQCGAKFTQKGNLLRHIKL
# B11: Q9UKT9 (peptide)
# chain: FHCEICGRHFTQKGNLLRHIKL
# B12: Q9UKT9 (peptide)
# chain: LGCPICGFTCTQKGNLLRHIKL
# B13: Q9UKT9 (peptide)
# chain: LCCEICGFPCTQKGNLLRHIKL
# B14: Q9UKT9 (peptide)
# chain: LTCNQCGFTCTQKGNLLRHIKL
# B15: Q9UKT9 (peptide)
# chain: FHCNQCGAVFTQKGNLLRHIKL
# B16: Q9UKT9 (peptide)
# chain: FQCNQCGRRFTQKGNLLRHIKL
# B17: Q9UKT9 (peptide)
# chain: FICPICGRDFTQKGNLLRHIKL
# B18: Q9UKT9 (peptide)
# chain: FLCDQCGAIFTQKGNLLRHIKL
# B19: Q9UKT9 (peptide)
# chain: FMCDVCGAFFTQKGNLLRHIKL
# B20: Q9UKT9 (peptide)
# chain: FYCNQCGATFTQKGNLLRHIKL
# B21: Q9UKT9 (peptide)
# chain: LNCNQCGFHCTQKGNLLRHIKL
# B22: Q9UKT9 (peptide)
# chain: FECDICGADFTQKGNLLRHIKL
# B23: Q9UKT9 (peptide)
# chain: FNCPICGASFTQKGNLLRHIKL
# B24: Q9UKT9 (peptide)
# chain: FFCNQCGRHFTQKGNLLRHIKL
# B25: Q9UKT9 (peptide)
# chain: FMCPICGASFTQKGNLLRHIKL
# B26: Q9UKT9 (peptide)
# chain: FLCEICGHYFTQKGNLLRHIKL
# B27: Q9UKT9 (peptide)
# chain: FGCPICGHHFTQKGNLLRHIKL
# B28: Q9UKT9 (peptide)
# chain: FVCPICGRIFTQKGNLLRHIKL
# B29: Q9UKT9 (peptide)
# chain: FACNQCGHNFTQKGNLLRHIKL
# B30: Q9UKT9 (peptide)
# chain: FKCDVCGADFTQKGNLLRHIKL
# B31: Q9UKT9 (peptide)
# chain: FGCNQCGAMFTQKGNLLRHIKL
# B32: Q9UKT9 (peptide)
# chain: FNCNVCGAGFTQKGNLLRHIKL
# Target: no compound (DMSO)
# Test: log2 fold change of degron read counts, EGFP-low vs EGFP+ sorted cells; higher = lower degron-EGFP level without compound (poor expression or instability)
# Settings: compound: DMSO control; 18 h
# 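Further: jurkat cells carrying a lentiviral library of mutant zinc finger degrons fused to EGFP plus mCherry, mCherry+ cells FACS sorted, degron abundance counted by next-generation sequencing.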
row,Sequence,log2 fold change of degron read counts
1,B1,-0.921
2,B2,-1.44
3,B3,0.463
4,B4,-1.15
5,B5,-1.59
6,B6,-1.3
7,B7,1.33
8,B8,0.575
9,B9,-1.51
10,B10,-1.44
11,B11,-1.44
12,B12,0.145
13,B13,0.485
14,B14,-0.2
15,B15,0.275
16,B16,-1.27

row,Sequence,log2 fold change of degron read counts
1,B17,0.00266
2,B18,-0.689
3,B19,-0.55
4,B20,-0.0919
5,B21,1.2
6,B22,-1.91
7,B23,-0.0763
8,B24,1.07
9,B25,-0.69
10,B26,-0.128
11,B27,-0.09
12,B28,0.164
13,B29,0.0902
14,B30,-2.48
15,B31,-0.0569
16,B32,-0.92
